Target: the molecule itself
Test: cell-based or functional assay

B1: neutrophil-derived properdin (natural protein, UniProt P27918 28-469, looked up)
chain: DPVLCFTQYEESSGKCKGLLGGGVSVEDCCLNTAFAYQKRSGGLCQPCRSPRWSLWSTWAPCSVTCSEGSQLRYRRCVGWNGQCSGKVAPGTLEWQLQACEDQQCCPEMGGWSGWGPWEPCSVTCSKGTRTRRRACNHPAPKCGGHCPGQAQESEACDTQQVCPTHGAWATWGPWTPCSASCHGGPHEPKETRSRKCSAPEPSQKPPGKPCPGLAYEQRRCTGLPPCPVAGGWGPWGPVSPCPVTCGLGQTMEQRTCNHPVPQHGGPFCAGDATRTHICNTAVPCPVDGEWDSWGEWSPCIRRNMKSISCQEIPGQQSRGRTCRGRKFDGHRCAGQQQDIRHCYSIQHCPLKGSWSEWSTWGLCMPPCGPNPTRARQRLCTPLLPKYPPTVSMVEGQGEKNVTFWGRPLPRCEELQGQKLVVEEKRPCLHVPACKDPEEEEL
**Q.** B1 was tested. Which “C3b deposition in the properdin functional ELISA at 300 ng/ml properdin, neutrophil-derived against donor-matched serum-derived properdin (10 donors)” value did it give?
**A.** 5 fold lower
